# According to the supplement of paper PMC8728848:
# Some of the results follow.
# B1: Dectin2 (Homo sapiens), Q6EIG7 (protein)
# chain: MMQEQQPQSTEKRGWLSLRLWSVAGISIALLSACFIVSCVVTYHFTYGETGKRLSELHSYHSSLTCFSEGTKVPAWGCCPASWKSFGSSCYFISSEEKVWSKSEQNCVEMGAHLVVFNTEAEQNFIVQQLNESFSYFLGLSDPQGNNNWQWIDKTPYEKNVRFWHLGEPNHSAEQCASIVFWKPTGWGWNDVICETRRNSICEMNKIYL
# Legend:
# Assay in all cases: glycan array binding signal (z-score within array); higher = stronger binding
# Details in all cases: glycan notation: IUPAC condensed, linker removed
# [1] = biological target: GlcNAc(b1-3)Gal(b1-4)GlcNAc(b1-3)Gal(b1-4)GlcNAc(b1-3)Gal(b1-4)GlcNAc(b1-3)Gal(b1-4)GlcNAc(b1-2)[GlcNAc(b1-3)Gal(b1-4)GlcNAc(b1-3)Gal(b1-4)GlcNAc(b1-3)Gal(b1-4)GlcNAc(b1-3)Gal(b1-4)GlcNAc(b1-6)]Man(a1-6)[GlcNAc(b1-3)Gal(b1-4)GlcNAc(b1-3)Gal(b1-4)GlcNAc(b1-3)Gal(b1-4)GlcNAc(b1-3)Gal(b1-4)GlcNAc(b1-2)Man(a1-3)]Man(b1-4)GlcNAc(b1-4)[Fuc(a1-6)]GlcNAc
# Procedure, shortened: (§1)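 Glycan array data came from 3228 arrays in the Consortium for Functional Glycomics database, and only arrays with an available protein sequence were kept. Glycan names were put into IUPAC-condensed notation, and columns mapping to the same glycan were averaged. The binding signal is a within-array Z-score, averaged across arrays of one protein sequence run at different concentrations or buffers and across linkers. A negative Z-score can be read as non-binding.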
# [2] = biological target: GlcNAc(b1-3)Gal(b1-4)GlcNAc(b1-3)Gal(b1-4)GlcNAc(b1-3)GalNAc
# Procedure, shortened: as §1
# [3] = biological target: GlcNAc(b1-3)Gal(b1-4)GlcNAc(b1-3)GalNAc
# Procedure, shortened: as §1
# [4] = biological target: GlcNAc(b1-3)Gal(b1-4)GlcNAc(b1-3)[GlcNAc(b1-3)Gal(b1-4)GlcNAc(b1-3)]GalNAc
# Procedure, shortened: as §1
# [5] = biological target: GlcNAc(b1-3)Gal(b1-4)GlcNAc(b1-6)[Gal(b1-3)]GalNAc
# Procedure, shortened: as §1
# [6] = biological target: GlcNAc(b1-3)Gal(b1-4)GlcNAc(b1-6)[GlcNAc(b1-3)Gal(b1-3)]GalNAc
# Procedure, shortened: as §1
# [7] = biological target: GlcNAc(b1-3)Gal(b1-4)GlcNAc(b1-6)[GlcNAc(b1-3)]Gal(b1-4)GlcNAc
# Procedure, shortened: as §1
# [8] = biological target: GlcNAc(b1-3)GalNAc
# Procedure, shortened: as §1
# [9] = biological target: GlcNAc(b1-3)Man
# Procedure, shortened: as §1
# [10] = biological target: GlcNAc(b1-3)[GlcNAc(b1-4)][GlcNAc(b1-6)]GlcNAc
# Procedure, shortened: as §1
# [11] = biological target: GlcNAc(b1-3)[GlcNAc(b1-6)]Gal(b1-4)GlcNAc
# Procedure, shortened: as §1
# [12] = biological target: GlcNAc(b1-3)[GlcNAc(b1-6)]GalNAc
# Procedure, shortened: as §1
# [13] = biological target: GlcNAc(b1-4)Gal(b1-4)GlcNAc
# Procedure, shortened: as §1
# [14] = biological target: GlcNAc(b1-4)GlcNAc
# Procedure, shortened: as §1
# [15] = biological target: GlcNAc(b1-4)GlcNAc(b1-4)GlcNAc
# Procedure, shortened: as §1
# [16] = biological target: GlcNAc(b1-4)GlcNAc(b1-4)GlcNAc(b1-4)GlcNAc(b1-4)GlcNAc
# Procedure, shortened: as §1
# [17] = biological target: GlcNAc(b1-4)GlcNAc(b1-4)GlcNAc(b1-4)GlcNAc(b1-4)GlcNAc(b1-4)GlcNAc
# Procedure, shortened: as §1
# [18] = biological target: GlcNAc(b1-4)[GlcNAc(b1-6)]GalNAc
# Procedure, shortened: as §1
# [19] = biological target: GlcNAc(b1-6)Gal(b1-4)GlcNAc
# Procedure, shortened: as §1
# [20] = biological target: GlcNAc(b1-6)GalNAc
# Procedure, shortened: as §1
# [21] = biological target: GlcNAc6S(b1-3)Gal(b1-4)GlcNAc
# Procedure, shortened: as §1
# [22] = biological target: Kdn(a2-3)Gal(b1-3)GalNAc
# Procedure, shortened: as §1
# [23] = biological target: Kdn(a2-3)Gal(b1-3)GlcNAc
# Procedure, shortened: as §1
# [24] = biological target: Kdn(a2-3)Gal(b1-4)Glc
# Procedure, shortened: as §1
# [25] = biological target: Kdn(a2-3)Gal(b1-4)GlcNAc
# Procedure, shortened: as §1
# [26] = biological target: Kdn(a2-3)Gal(b1-4)[Fuc(a1-3)]GlcNAc
# Procedure, shortened: as §1
# [27] = biological target: Kdn(a2-6)Gal(b1-4)GlcNAc
# Procedure, shortened: as §1
# [28] = biological target: Man(a1-2)Man(a1-2)Man(a1-3)Man
# Procedure, shortened: as §1
# [29] = biological target: Man(a1-2)Man(a1-2)Man(a1-6)[Man(a1-3)]Man
# Procedure, shortened: as §1
# [30] = biological target: Man(a1-2)Man(a1-3)Man
# Procedure, shortened: as §1
# [31] = biological target: Man(a1-2)Man(a1-3)[Man(a1-2)Man(a1-6)]Man
# Procedure, shortened: as §1
# [32] = biological target: Man(a1-2)Man(a1-3)[Man(a1-2)Man(a1-6)]Man(a1-6)[Man(a1-2)Man(a1-2)Man(a1-3)]Man
# Procedure, shortened: as §1
# [33] = biological target: Man(a1-2)Man(a1-3)[Man(a1-2)Man(a1-6)]Man(a1-6)[Man(a1-2)Man(a1-2)Man(a1-3)]Man(b1-4)GlcNAc(b1-4)GlcNAc
# Procedure, shortened: as §1
# [34] = biological target: Man(a1-2)Man(a1-3)[Man(a1-6)]Man(a1-6)[Man(a1-2)Man(a1-3)]Man(b1-4)GlcNAc(b1-4)GlcNAc
# Procedure, shortened: as §1
# [35] = biological target: Man(a1-2)Man(a1-6)[Man(a1-3)]Man(a1-6)[Man(a1-2)Man(a1-2)Man(a1-3)]Man
# Procedure, shortened: as §1
# [36] = biological target: Man(a1-2)Man(a1-6)[Man(a1-3)]Man(a1-6)[Man(a1-2)Man(a1-2)Man(a1-3)]Man(b1-4)GlcNAc(b1-4)GlcNAc
# Procedure, shortened: as §1
# [37] = biological target: Man(a1-3)[Man(a1-6)]Man
# Procedure, shortened: as §1
# [38] = biological target: Man(a1-3)[Man(a1-6)]Man(a1-6)[Man(a1-2)Man(a1-3)]Man(b1-4)GlcNAc(b1-4)GlcNAc
# Procedure, shortened: as §1
# [39] = biological target: Man(a1-3)[Man(a1-6)]Man(a1-6)[Man(a1-3)]Man
# Procedure, shortened: as §1
# [40] = biological target: Man(a1-3)[Man(a1-6)]Man(a1-6)[Man(a1-3)]Man(b1-4)GlcNAc(b1-4)GlcNAc
# Procedure, shortened: as §1
# [41] = biological target: Man(a1-3)[Man(a1-6)]Man(b1-4)GlcNAc(b1-4)GlcNAc
# Procedure, shortened: as §1
# [42] = biological target: Man(a1-3)[Man(a1-6)]Man(b1-4)GlcNAc(b1-4)[Fuc(a1-6)]GlcNAc
# Procedure, shortened: as §1
# [43] = biological target: Man(a1-6)Man
# Procedure, shortened: as §1
# [44] = biological target: Man(b1-4)GlcNAc
# Procedure, shortened: as §1
# [45] = biological target: MurNAc(b1-4)GlcNAc
# Procedure, shortened: as §1
binder,measurement,setting,value
B1,glycan array binding signal (z-score),[1],0.171
same,glycan array binding signal (z-score),[2],-0.197
same,glycan array binding signal (z-score),[3],-0.165
same,glycan array binding signal (z-score),[4],-0.182
same,glycan array binding signal (z-score),[5],-0.196
same,glycan array binding signal (z-score),[6],-0.118
same,glycan array binding signal (z-score),[7],-0.194
same,glycan array binding signal (z-score),[8],-0.172
same,glycan array binding signal (z-score),[9],0.127
same,glycan array binding signal (z-score),[10],1.3
same,glycan array binding signal (z-score),[11],-0.212
same,glycan array binding signal (z-score),[12],-0.17
same,glycan array binding signal (z-score),[13],-0.148
same,glycan array binding signal (z-score),[14],-0.182
same,glycan array binding signal (z-score),[15],-0.202
same,glycan array binding signal (z-score),[16],-0.186
same,glycan array binding signal (z-score),[17],-0.166
same,glycan array binding signal (z-score),[18],1.29
same,glycan array binding signal (z-score),[19],-0.078
same,glycan array binding signal (z-score),[20],-0.142
same,glycan array binding signal (z-score),[21],-0.166
same,glycan array binding signal (z-score),[22],-0.142
same,glycan array binding signal (z-score),[23],-0.199
same,glycan array binding signal (z-score),[24],-0.166
same,glycan array binding signal (z-score),[25],-0.172
same,glycan array binding signal (z-score),[26],-0.14
same,glycan array binding signal (z-score),[27],-0.177
same,glycan array binding signal (z-score),[28],10.3
same,glycan array binding signal (z-score),[29],13.5
same,glycan array binding signal (z-score),[30],4.35
same,glycan array binding signal (z-score),[31],7.43
same,glycan array binding signal (z-score),[32],13.9
same,glycan array binding signal (z-score),[33],-0.034
same,glycan array binding signal (z-score),[34],0.767
same,glycan array binding signal (z-score),[35],3.05
same,glycan array binding signal (z-score),[36],1.38
same,glycan array binding signal (z-score),[37],0.968
same,glycan array binding signal (z-score),[38],1.16
same,glycan array binding signal (z-score),[39],0.439
same,glycan array binding signal (z-score),[40],-0.099
same,glycan array binding signal (z-score),[41],0.154
same,glycan array binding signal (z-score),[42],0.486
same,glycan array binding signal (z-score),[43],-0.154
same,glycan array binding signal (z-score),[44],-0.061
same,glycan array binding signal (z-score),[45],-0.134
